Laboratory results published in the supplement of paper PMC10338343.
± gives the standard deviation. In all, about 5,500 sequences were measured (“pre-steady-state target cleavage rate”: median about 0.1, highest 2% from about 0.64 on). The entries are a selection whose mix differs from that of the whole data set.

system: MIWI (PIWIL1) piRISC loaded with piRNA #2 (30 nt); assay: pre-steady-state target cleavage rate (min^-1); MIWI and MILI are mouse PIWI proteins and EfPiwi is from a freshwater sponge; tags in brackets are library labels; higher = faster piRNA-guided slicing of the target; settings: guide: piRNA #2 5'p-UUAGGUAACCCAGUAGAUCCAGAGGAAUUC; auxiliary factor: 500 nM mouse GTSF1
Procedure, shortened: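 A burst-and-steady-state fit was used to obtain the pre-steady-state cleavage rate. The input data were sequencing reads of uncleaved targets, normalised to depth and to weakly complementary targets, from a […] transcribed, DNA-blocked target RNA library mixed with 1 nM active affinity-purified piRISC holding one synthetic guide, with or without 500 nM GTSF1 partner protein, in HEPES–potassium acetate buffer at 33 °C for 0–8 or 0–960 min. Three trials were pooled and k3 was capped at 0.0001 min^-1.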

Sequence	pre-steady-state target cleavage rate
CUUAAGGUCGUGGAUCUACUGGGUUACCUAA	0.0811 ± 0.021
CUUUUUCUCUGGAUCUACUGGGUUACCUAA	0.169 ± 0.024
CUUUUCCUCUGGAUCUACUGGGUUACACUAA	0.496 ± 0.045
CUUAAGGAGAGCAUCUACUGCGUUACCUAA	0.00292 ± 0.0029
CUUAACCUCUGGAUCUACUGGCUUACCUUA	0.0446 ± 0.0088
CUUUUCCUCGGAUCUACUGGGUUACCUAA	0.395 ± 0.074
CUUAAGCUCUGGAUCAAGUGGGUUACCUAA	0.00498 ± 0.0043
CUAUAGGUCUGGAUCUACUGGGUUACCUAA	0.193 ± 0.029
CUUAAGGACUGGAUCUACUGGGUUAACCUAA	0.0999 ± 0.054
GAAUUCCUGUGGAUGUACUGGGUUACCUAA	0.34 ± 0.04
CUUAAGGUCUGGAUCUACAGGCUUACCUAA	0.0179 ± 0.0082
GAAUUCCUCUGGAUCUUCUGGGUUUCCUAA	0.234 ± 0.049
CUUAAGGACUGGAUCUACUGGGGUACCUAA	0.0349 ± 0.018
CUAUUCCUCAGGAUCUACUGGGUUACGUAA	0.499 ± 0.073
CUAUUCGUCUGGAUCAACUGGGUUACCUAA	0.209 ± 0.026
CUUAACCUCUGGAUCUACUGGGUUACCUUAA	0.2 ± 0.025
CUUAAGCUCUGGAUCUACUGAGUUACCUAA	0.486 ± 0.044
GAAAUCCUCUGGAUCUAGUGGGUUACCUAA	0.0805 ± 0.017
CAAUUCCUCUGGAUCUUCUGGCUUACCUAA	0.0168 ± 0.0075
CUUAAGGACUGGAUGUACUGGGUUAGCUAA	0.0745 ± 0.045
CUUUUACUCUGGAUCUACUGGGUUACCUAA	0.0983 ± 0.018
GAAUUCCACUGGAUGUACUGGGUUACCUAA	0.402 ± 0.033
CUUAUCGUCUGGAUCUACUGGGUUACCUUA	0.295 ± 0.066

Sequence	pre-steady-state target cleavage rate
CUUAUCGUCUGGAUCUACAGGGUUACCUAA	0.142 ± 0.025
CUAUUCCUCUGGAUCUAGUGGGUUAGCUAA	0.0581 ± 0.015
CUAUUCCUCUGGAUCAACUGGCUUACCUAA	0.0797 ± 0.015
GAAUUCCUCUGGAUCUACUGGGGUUACCUAA	0.0291 ± 0.0067
CUUUUGCUCUGGAUCUACUGGGUUAGCUAA	0.385 ± 0.059
GAAUUCCUCUGGUUCUAGUGGGUUACCUAA	0.303 ± 0.035
CAAUUCCUCUGCUACUACUGGGUUACCUAA	0.557 ± 0.058
CUAUACCUCUGGAUCUACAGGGUUACCUAA	0.279 ± 0.038
CUUAAGGAGUGGAUCUACGGGGUUACCUAA	0.0113 ± 0.0032
CUUAAGGUCUGGAUCUACUGCGUUACCAAA	0.109 ± 0.029
GAAUUCCUCUGGAUCUACUGGGUAACGUAA	0.234 ± 0.039
CUAGUCCUCUGGAUCUACUGGGUUACCUAA	0.145 ± 0.036
CUUAACCUCUCGAUCUAGUGGGUUACCUAA	0.267 ± 0.02
CUUAUCCUCUGGAUCAUCUGGGUUACCUAA	0.246 ± 0.028
GAAUUCCCCUGGAUCUACUGGGUUACCUAA	0.436 ± 0.034
GAAUUCCUCUGGAUCUACUGGGUUACCUUAA	0.243 ± 0.043
GAUUUCCUCUGGAUCUACUGGGUUACCUUA	0.142 ± 0.037
GAAUUCCUCAUGGAUCUACUGGGUUACCUAA	0.376 ± 0.044
CUAUUCCUCUGGAUCUACUGGGGUACCUAA	0.138 ± 0.037
CUUAAGCUCUGCAUCUACAGGGUUACCUAA	0.175 ± 0.015
CAAUUCGUCUGGUUCUACUGGGUUACCUAA	0.557 ± 0.063
CUUAAGGACUGGAUCUUCUGGGUUACCUAA	0.0593 ± 0.037
CUUAAGCUUCUGGAUCUACUGGGUUACCUAA	0.166 ± 0.025

Sequence	pre-steady-state target cleavage rate
CUAUUCCUCUGGAACUACUGGGAUACCUAA	0.145 ± 0.031
CUUAAGGACUGGAUCUACUGGGUUACCUAA [g2:g22:cont:t1A]	0.157 ± 0.052
CUUAAGGUCUGGUUCUACUGGCUUACCUAA	0.0639 ± 0.016
GAAAUCCUCUGGAUCUACUGGCUUACCUAA	0.0842 ± 0.017
CUUAUCCUCUGGAUCUACGGGGUUACCUAA	0.0689 ± 0.0052
CUUAAGGAGAGGAUCUGCUGGGUUACCUAA	0.00675 ± 0.0043
CAAUUCCACAGGAUCUACUGGGUUACCUAA	0.538 ± 0.067
CUUAUCCUCUGGAUCAACUGCGUUACCUAA	0.427 ± 0.06
CUUAUCCUCUGGAUCUACUGGGUUAGGUAA	0.0789 ± 0.024
CUUAAGGUCUGGAUCUACUGGGAUAGCUAA	0.0376 ± 0.016
CUUAAGGAGUGGAUCUACUGGGUUGCCUAA	0.0417 ± 0.011
CUUUUGCUCUGGAUCUACUGCGUUACCUAA	0.355 ± 0.037
CUUAAGGUCUGGAUGCUACUGGGUUACCUAA	0.121 ± 0.032
CUUAAGGAGAGGAUCUACUGGGUUACCAAA	0.00514 ± 0.0034
CAAUUCCUAUGGAUCUACUGGGUUACCUAA	0.544 ± 0.053
CUUAACCUCUGGAUCUACUGCGUUACCUAA	0.37 ± 0.049
GAAUUCCACUGGAUCUUCUGGGUUACCUAA	0.572 ± 0.051
CUUUUGCUCUGGAUCUACAGGGUUACCUAA	0.118 ± 0.011
CUUAAGCUCUGGAUCUUCUGGGAUACCUAA	0.0481 ± 0.0094
CUUUUCCUCUGGAUCAACUGCGUUACCUAA	0.474 ± 0.056
CUAUUCCUCUGGAUCUACUGGGUAUACCUAA	0.417 ± 0.05
CUAAUCCUCUGGAUCUACUGCGUUACCUAA	0.518 ± 0.048
CUUAAGCUCUCGAUCUACUGGGUAACCUAA	0.106 ± 0.012

Sequence	pre-steady-state target cleavage rate
CUUAUCCUCUCGAUCUACUGCGUUACCUAA	0.636 ± 0.048
GAUUUCCUCUGGAUCUACUGGCUUACCUAA	0.0695 ± 0.014
CUUAAGGACUGGAUUCUACUGGGUUACCUAA	0.0274 ± 0.024
GAAUAGCUCUGGAUCUACUGGGUUACCUAA	0.0533 ± 0.02
CUUAUCCUCUGGAUCUACUGGCUUACGUAA	0.0964 ± 0.024
CAAUUCCUCUGGAUCUACUCGGUAACCUAA	0.00908 ± 0.0072
CUUAAGGACAGGAUCUACUGGGUUACCUAA	0.107 ± 0.032
GAAUUCCUCUGGAUCUACUGGAUUACCUAA	0.367 ± 0.039
CUUAAGGAGUGGAUCUACAGGGUUACCUAA	0.0257 ± 0.0056
CUUAUGCUCUGGAUCUACUGGGUUAGCUAA	0.256 ± 0.035
CUUAACCUCUGGAUCUACUGGGUUACCAA	0.187 ± 0.031
CUUAAGGUGUGGAUGUACUGGGUUACCUAA	0.0931 ± 0.031
CAAUUCCUGAGGAUCUACUGGGUUACCUAA	0.437 ± 0.044
CUUAACCACUGCAUCUACUGGGUUACCUAA	0.27 ± 0.028
CUUAAGCUCUGGAUCUACUGGCUUAGCUAA	0.00714 ± 0.004
GAAUUGCUCUGGAUCUACUGGGUUACGUAA	0.399 ± 0.069
CUUAAGGAGACCUAGAACUGGCGUUACCUAA	0.00292 ± 0.0024
CUAUUCCUGUGGAUCUAGUGGGUUACCUAA	0.184 ± 0.021
CUAUUCCUCUGGAUCUACUGGGUUGACCUAA	0.408 ± 0.043
CUUAAGGACUGGAUCUACUGGGUUACCGUAA	0.0402 ± 0.032
CUUUACCUCUGGUUCUACUGGGUUACCUAA	0.514 ± 0.043
CUUAAGGACUGGAUCUAGUGGGUUUCCUAA	0.00587 ± 0.0039
CUUAAGGUCUGGAUCUACUGGGUUACCUA	0.177 ± 0.02
